ChEMBL document CHEMBL1156829
Whole data set: some 5,400 compounds, median “IFI” near 2, cut for the highest 2% near 22. The list shows a part of the results.

Assay: NOVARTIS: Inhibition Frequency Index (IFI) - the number of HTS assays where a compound showed > 50% inhibition/induction, expressed as a percentage of the number of assays in which the compound was tested.
Format: functional

Compound | IFI
COc1ccc(CN(Cc2ccc(C(C)C)cc2)S(=O)(=O)c2ccc(S(=O)(=O)N3CCN(c4ccccc4F)CC3)cc2)cc1 | 1.04%
Cn1c(=O)c2c(nc3n(CCCO)c(C45CC6CC(CC(C6)C4)C5)cn23)n(C)c1=O | 0%
CCC(C)NC(=O)c1cc(NC(=O)/C=C/c2ccc([N+](=O)[O-])cc2)ccc1N1CCN(c2ccccc2OC)CC1 (centres undefined) | 2.75%
COC(=O)c1sc2nc(CN(C)CC(C)C)ccc2c1NC(=O)c1ccc(C)s1 | 0.962%
Cc1cccc(NC(c2cccc(Cl)c2)c2ccc3cccnc3c2O)n1 (centres undefined) | 0%
CCOC(=O)c1ccc(NC2=C(N3CCCCC3)C(=O)c3ccccc3C2=O)cc1 | 0%
Cc1oc2c(c1C(=O)N1CCN(C)CC1)C(=O)c1ccccc1C2=O | 10.8%
CC(=O)c1cc(CN2CCC(C(=O)Nc3ccc(-n4nc(C)cc4C)cc3)CC2)cs1 | 0%
COc1ccc(Nc2nc(NN=Cc3cc(Br)c(O)cc3O)nc(Nc3ccc([N+](=O)[O-])cc3)n2)cc1 | 13.9%
COc1ccc(/C=C2\SC(=Nc3ccccc3)NC2=O)cc1 | 0%
CCCCSc1oc(C)nc1[P+](c1ccccc1)(c1ccccc1)c1ccccc1 | 22.2%
O=C(C1CC1)N1CCN=C1SCc1ccc(C(F)(F)F)cc1 | 0%
CN1CCCC1CCNc1ncc(C(=O)NCc2ccccc2)c(NC2CCCC2)n1 (centres undefined) | 1.94%
Cc1cccc(C2c3[nH]c4ccccc4c3CCN2C(=O)CCCN2CCCCC2=O)n1 (centres undefined) | 0%
COc1ccc(C2(CNCC(O)c3cccc([N+](=O)[O-])c3)CCCC2)cc1OC (centres undefined) | 0%
CCn1c2c(c(=N)c3ccccc31)CCC2 | 7.14%
CN1CCN(c2nc(NN=Cc3cccc(Cl)c3)nc(Nc3ccc([N+](=O)[O-])cc3)n2)CC1 | 5.2%
CC(C)(C)C(/C=C/c1ccc(Cl)cc1Cl)n1nnnc1C1(Nc2ccc(Cl)cc2)CCCCC1 (centres undefined) | 0%
Cc1cc(Nc2cccc(F)c2)nc(NCc2ccccc2)n1 | 0%
O=C(c1cccc(Cl)c1)N1CCN(c2ccc([N+](=O)[O-])c(NC3CC3)c2)CC1 | 3.49%

Compound | IFI
O=C(Nc1ccc2c(c1)OCO2)c1cc2cc(C3(O)CCN(CC4CCCCC4)CC3)ccc2o1 | 4.24%
c1ccc(-c2cc(N3CCc4ccccc4C3)nc(-c3ccccn3)n2)nc1 | 7.69%
Cc1ccnc(NC(c2ccncc2)c2ccc3cccnc3c2O)c1 (centres undefined) | 9.52%
COCCOC(=O)C1=C(C)NC2=C(C(=O)CC(c3ccc(OC)c(OC)c3)C2)C1c1cccc(Cl)c1Cl (centres undefined) | 2.35%
CN(C)CCCNc1ncnc2c1[nH]c1ccccc12 | 6%
OCCN1CCN(c2cc(-c3cccnc3)nc(-c3ccncc3)n2)CC1 | 0%
COc1cc(C(=O)Nc2c3c(nn2-c2cc(C)cc(C)c2)CSC3)cc(OC)c1OC | 3.53%
CC12CCC(CN(CC(O)Cn3c4ccc(Br)cc4c4cc(Br)ccc43)C1)C2(C)C (centres undefined) | 1.39%
CCOC(=O)C1=C(C)NC2=C(C(=O)CCC2)C1c1cc(Br)c(O)c(OCC)c1 (centres undefined) | 3.45%
CCC1(C)CC(CCNCc2ccccc2O)(c2ccccc2OC)CCO1 (centres undefined) | 2.86%
CCc1ccc(C(=O)Oc2ccccc2-c2nc3cc(C)ccn3c2NC(C)(C)CC(C)(C)C)cc1 | 7.48%
CN[C@H]1C[C@@H]2O[C@](C)([C@H]1O)n1c3ccccc3c3c4c(c5c6ccccc6n2c5c31)C(=O)NC4 | 46.2%
C[n+]1c(/C=C/c2ccc(Cl)c(Cl)c2)ccc2ccccc21 | 2%
O=C1NCCN1CCNS(=O)(=O)c1cc(C(F)(F)F)cc(C(F)(F)F)c1 | 0.833%
COc1ccc(-n2nc(C(=O)NCC(=O)NCCCN3CCOCC3)c3ccccc3c2=O)cc1Cl | 0%
Cc1ccn2c(NC(C)(C)CC(C)(C)C)c(-c3ccccc3OC(=O)C3CCCCC3)nc2c1 | 3.74%
O=C(NCc1c(Cl)cccc1Sc1ccc(Cl)cc1)c1ccc2c(c1)CCO2 | 7.89%
Cc1ccn2c(NC(C)(C)CC(C)(C)C)c(-c3ccccc3OC(=O)c3ccccc3F)nc2c1 | 3.74%
CCC(C)NC(=O)CSc1nnc(-c2cccnc2)n1-c1ccc(Cl)cc1 (centres undefined) | 0%
CCN(CC)CCN1C(=O)c2ccccc2NC1c1ccc(Br)cc1 (centres undefined) | 4.71%

Compound | IFI
COc1ccc(S(=O)(=O)N=C2C=C(Nc3ccccc3)C(=O)c3ccccc32)cc1 | 0%
Cc1ccc(Cl)cc1N1C(=O)[C@@H]2[C@H](C1=O)C1c3ccccc3C=CN1[C@@H]2C(=O)c1cccs1 (some centres undefined) | 9.76%
CCOC(=O)C1=C(C)N=c2sc(=Cc3cc(Cl)ccc3O)c(=O)n2C1c1ccc2c(c1)OCO2 (centres undefined) | 2.35%
CC(C)c1ccc(C2N(c3ccccc3)C3(C(=O)c4ccccc4C3=O)C(c3ccc(C(C)C)cc3)C23C(=O)c2ccccc2C3=O)cc1 (centres undefined) | 0%
CCN(CC)CCNc1ncnc2c1[nH]c1ccc(F)cc12 | 5.88%
CCC(C)NC(=O)c1nn(-c2ccc(Cl)cc2)c(=O)c2ccccc12 (centres undefined) | 0%
O=C1/C(=C/c2ccccc2)Oc2c1ccc(O)c2CN1CCCCC1 | 0%
COc1ccc(CNc2ncnc3c2[nH]c2cc(OC)ccc23)cc1 | 7.69%
O=C(c1cccs1)N1CCN(c2ccccn2)CC1 | 0%
O=C(Nc1ccc(Oc2cccnc2)cc1)C1CCN(Cc2ccc3nonc3c2)CC1 | 0%
OCCCNc1cc(-c2ccnc(Nc3cccc(Cl)c3)n2)ccn1 | 30.8%
CCOc1ccc(NC(=O)C2c3ccccc3C(=O)N(CC(C)C)C2c2cccs2)cc1 (centres undefined) | 6.25%
c1cc(NCc2ccc3c(c2)OCO3)n2ncc(-c3ccoc3)c2n1 | 0%
Cc1cc(Nc2ccc(Cl)cc2)n2nnnc2n1 | 0%
COc1ccc(C(C)=NNc2nnc(C)c(O)n2)cc1 | 0%
Cc1c2oc3c(C)ccc(C(=O)NC4C(=O)N[C@@H](C(C)C)C(=O)N5CCCC5C(=O)N(C)CC(=O)N(C)C(C(C)C)C(=O)OC4C)c3nc-2c(C(=O)NC2C(=O)N[C@H](C(C)C)C(=O)N3CCCC3C(=O)N(C)CC(=O)N(C)C(C(C)C)C(=O)OC2C)c(N)c1=O (some centres undefined) | 21.7%
COc1ccc2nc(C)cc(Nc3ccc(Cl)cc3)c2c1 | 3.37%
COc1ccc(C2C(C(=O)Nc3cccc(OC)c3)c3ccccc3C(=O)N2C2CCCCC2)cc1 (centres undefined) | 0%
Cc1cccc(N2CCN(c3nc4ccccc4c4nnc(C)n34)CC2)c1C | 0%
